Assay results: paper PMC10320511
Residue numbers refer to the chain shown, from its start. No constants are given. Whether binding was seen depends on the method and setting. Binding seen in cells or lysates may run through a third protein. Some results given as binding are weak or reduced against the parent protein; the word gives no strength. Where a sequence is shown, tags or fusion partners need not be part of it.

B1: White Collar-2 (WC-2) (protein, UniProt P78714 1-530)
chain: MSHGQPPPGSSMYGFGAMGMGSGMGSGMGSGMGTGMGTGMGTGMSASQMTSDPQDMMSLLDTSVFPGFDGMSMSLDVGDSMSNPFTPVSVPPPLPAGNAGPSHVGVCGGHGAPDQLFSPDDLIATSMSSAGPMIATPTTTTSGPSGGPSSGGGSTLTEFTKRRNWPAKVVEELQDWEHILDANGRIKHVSPSVEPLTGYKPPEIIDLFLRDLIHPDDVGVFTAELNEAIATGSQLRLFYRFRKKDGNWTIFETVGHAHIAAAKFAPNPQNQSPFCQAVFMMARPYPTKNAGLLDSFLEHKIENERLKRRIAELRREEQEEQEESHRTWRMSQEGRSDVTPSDDTATQMGMTPFYIPMNAQADVMMPPPSQPASSLNIALTRENLEGIAGSRPDSIREKMLRYEGNHADTIEMLTGLKYQEGERSHGITTGNASPTLIKGDAGIAIPLDRDPRTGEKKKKIKVAEEYVCTDCGTLDSPEWRKGPSGPKTLCNACGLRWAKKEKKKNANNNNNGGGIGGHNDIHTPMGDHMG
B2: FRQ-interacting RNA helicase (FRH) (protein, UniProt Q1K502 1-1106)
chain: MDDLFEVFEEQPRAQKKRKASPDVEMADGAAAAAPVANAAAAVTHPQAQAAPAPQKDNIDNNDNNNNNTTTSAVQPTIPNGDAAAAADDVQSPQSPHGLGDNKRRKKTDEAEPIMTDAFQTAESREVTGAQGFAPTEGESIVLSHNIQHQVALPPDLDYEYIPLSEHKPPAEPARTYSFKLDPFQALSVASIEREESVLVSAHTSAGKTVVAEYAIAQCLKKNQRVIYTSPIKALSNQKYRDFQAEFGDVGLMTGDVTINPTASCLVMTTEILRSMLYRGSEIMREVAWVVFDEIHYMRDKIRGVVWEETIILLPDKVRYVFLSATIPNAFQFAEWIAKIHRQACHVVYTDFRPTPLQNYFFPAGGKGILLIVDEKGNFKENNFNQAMAMIEEKKGTDSNDWSAKQKGKGKNKKTNKGGEAADEKADIAKIIKMILKKNFQPVIVFNFSKRECEQMALASSSMKFNAPDEENMVNKVFENALASLSEDDKNLPQISNILPLLRKGIGVHHSGLLPILKETIEILFQEGLIKVLFATETFSIGLNMPARTVVFTQVTKWDGQQRRPLTSSEYIQMAGRAGRRGLDDRGIVIMMVDDKLEPETARAIVVGNQDKLNSAFHLGYNMVLNLLRIEAISPEYMLERCFFQFQNAASVPQLERELISLQQERDAIIIPDESIVKDYYGVRQQLEEYNKDMVFVIQHPQNCLGFFQEGRLIHIKSPSGVDYGWGVLIKHIQRQTPKNGQPPYPEQESYVLDVLLKVSGDFNPKTRGEGPMPEGIMPAGKDSKNARWEVVPCLLNCLRALGQLRVFLPKRLESADEKDGVGKAVDEISRRFPDGIPILDPMENMGINDDSFKKLLRKIEVLESRLVANPLHNSPLLVELWNQYSLKMQLGEQIKEKKKAIARAHSVAQLDELKSRKRVLRRLGFINDAEVVQMKARVACEISSTEGHELLLAELLFNRFFNELSPEICACILSCFIFDEKIETQALKEELAKPFREIQAQARIIAKVSAESKLDVNEDEYVQSLKWQLMETVLAWAQGRPFSEICKMTNVYEGSLIRLFRRLEELLRQMAEAARVMGSEELKDKFELSLSKIRRDIVSFNSLYL

Legend:
[1] = biological target: T1, FREQUENCY (FRQ), wild type, tagged with V5H6 (Neurospora crassa) (UniProt P19970); assay: co-IP; V5H6-tagged FRQ (wild type or mutant) pulled down with V5 agarose from Neurospora lysate (cultures in the light, 25 °C); 50 mM Hepes pH 7.4, 137 mM NaCl, 10% glycerol, 0.4% NP-40; 4 °C, 2 h; Western blot with FRQ, FRH, WC-1 and WC-2 antibodies
T1 sequence: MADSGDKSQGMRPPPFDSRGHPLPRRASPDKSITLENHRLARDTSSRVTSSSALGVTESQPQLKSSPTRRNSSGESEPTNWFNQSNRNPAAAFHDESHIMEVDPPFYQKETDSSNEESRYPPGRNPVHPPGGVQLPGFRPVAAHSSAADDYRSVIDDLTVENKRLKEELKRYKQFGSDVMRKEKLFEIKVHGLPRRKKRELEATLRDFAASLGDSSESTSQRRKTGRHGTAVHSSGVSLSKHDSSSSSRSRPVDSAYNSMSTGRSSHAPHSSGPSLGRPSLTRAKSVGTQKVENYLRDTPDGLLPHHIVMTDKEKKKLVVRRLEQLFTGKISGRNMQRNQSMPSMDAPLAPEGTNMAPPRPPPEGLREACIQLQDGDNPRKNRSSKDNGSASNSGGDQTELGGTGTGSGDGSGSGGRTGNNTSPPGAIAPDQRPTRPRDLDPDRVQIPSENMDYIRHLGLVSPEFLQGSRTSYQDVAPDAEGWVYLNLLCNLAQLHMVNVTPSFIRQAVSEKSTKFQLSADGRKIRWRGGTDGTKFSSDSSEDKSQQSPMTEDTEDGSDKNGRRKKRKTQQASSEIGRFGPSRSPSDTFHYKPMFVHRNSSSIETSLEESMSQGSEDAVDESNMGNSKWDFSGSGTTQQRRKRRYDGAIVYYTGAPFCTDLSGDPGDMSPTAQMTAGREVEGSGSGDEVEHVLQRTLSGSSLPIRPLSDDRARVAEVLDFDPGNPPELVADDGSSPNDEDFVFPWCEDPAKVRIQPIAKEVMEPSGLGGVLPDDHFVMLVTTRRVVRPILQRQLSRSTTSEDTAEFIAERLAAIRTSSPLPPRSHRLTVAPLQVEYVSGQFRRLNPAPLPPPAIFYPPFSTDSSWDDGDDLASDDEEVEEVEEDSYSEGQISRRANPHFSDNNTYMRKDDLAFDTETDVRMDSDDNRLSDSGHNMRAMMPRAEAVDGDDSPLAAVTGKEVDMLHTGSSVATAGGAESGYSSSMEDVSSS

[2] = biological target: T2, FRQ D862A, D866A, D867A, D869A, D870A, V5H6-tagged (Neurospora crassa) (UniProt P19970); assay: as above
T2 sequence: T1 sequence with D862A, D866A, D867A, D869A, D870A

| Binder | binding [1] | binding [2] |
| --- | --- | --- |
| B1 | binds | binds weakly |
| B2 | binds | binds |
